# Measured values published in PubChem BioAssay AID504333 (National Center for Advancing Translational Sciences (NCATS), 2011).
# In all, about 360,000 compounds went through this assay and about 16,000 (4.4%) were called active. Inconclusive results, whose numbers are uncertain, are shown with a selection of clear calls. The call rests on the fitted dose curve; in most records, active means well fitted inhibition curve with a large enough effect; inconclusive means small, poorly fitted or top-dose-only effect; inactive means no such curve, though single readings can be large or run the other way. Where the call is inconclusive, the potency comes from a doubtful curve fit.
# Target: Bromodomain adjacent to zinc finger domain protein 2B (Homo sapiens) (UniProt Q9UIF8)
# Assay: qHTS Assay for Inhibitors of BAZ2B; further: nearly all actives have a fitted effect of over 60% in size
# Conditions: AlphaScreen BAZ2B-H3K14Ac peptide displacement; activity change, negative = inhibition: at 114 µM (top of the series) unless noted
# Method in brief: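 Multi-concentration screen (max 110 uM) measuring displacement of acetylated histone H3 peptide from BAZ2B by AlphaScreen, using 50 nM protein, 50 nM peptide and 10 ug/mL streptavidin donor plus Ni-chelate acceptor beads.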
# On the % scale 0 is the no-effect control and ±100 the full control effect; potency means the concentration at half of the fitted maximal effect; tags describe the fitted curve by direction and shape.
# Chain of UniProt Q9UIF8 (Q9UIF8 whole entry, looked up, the tested form may be a part): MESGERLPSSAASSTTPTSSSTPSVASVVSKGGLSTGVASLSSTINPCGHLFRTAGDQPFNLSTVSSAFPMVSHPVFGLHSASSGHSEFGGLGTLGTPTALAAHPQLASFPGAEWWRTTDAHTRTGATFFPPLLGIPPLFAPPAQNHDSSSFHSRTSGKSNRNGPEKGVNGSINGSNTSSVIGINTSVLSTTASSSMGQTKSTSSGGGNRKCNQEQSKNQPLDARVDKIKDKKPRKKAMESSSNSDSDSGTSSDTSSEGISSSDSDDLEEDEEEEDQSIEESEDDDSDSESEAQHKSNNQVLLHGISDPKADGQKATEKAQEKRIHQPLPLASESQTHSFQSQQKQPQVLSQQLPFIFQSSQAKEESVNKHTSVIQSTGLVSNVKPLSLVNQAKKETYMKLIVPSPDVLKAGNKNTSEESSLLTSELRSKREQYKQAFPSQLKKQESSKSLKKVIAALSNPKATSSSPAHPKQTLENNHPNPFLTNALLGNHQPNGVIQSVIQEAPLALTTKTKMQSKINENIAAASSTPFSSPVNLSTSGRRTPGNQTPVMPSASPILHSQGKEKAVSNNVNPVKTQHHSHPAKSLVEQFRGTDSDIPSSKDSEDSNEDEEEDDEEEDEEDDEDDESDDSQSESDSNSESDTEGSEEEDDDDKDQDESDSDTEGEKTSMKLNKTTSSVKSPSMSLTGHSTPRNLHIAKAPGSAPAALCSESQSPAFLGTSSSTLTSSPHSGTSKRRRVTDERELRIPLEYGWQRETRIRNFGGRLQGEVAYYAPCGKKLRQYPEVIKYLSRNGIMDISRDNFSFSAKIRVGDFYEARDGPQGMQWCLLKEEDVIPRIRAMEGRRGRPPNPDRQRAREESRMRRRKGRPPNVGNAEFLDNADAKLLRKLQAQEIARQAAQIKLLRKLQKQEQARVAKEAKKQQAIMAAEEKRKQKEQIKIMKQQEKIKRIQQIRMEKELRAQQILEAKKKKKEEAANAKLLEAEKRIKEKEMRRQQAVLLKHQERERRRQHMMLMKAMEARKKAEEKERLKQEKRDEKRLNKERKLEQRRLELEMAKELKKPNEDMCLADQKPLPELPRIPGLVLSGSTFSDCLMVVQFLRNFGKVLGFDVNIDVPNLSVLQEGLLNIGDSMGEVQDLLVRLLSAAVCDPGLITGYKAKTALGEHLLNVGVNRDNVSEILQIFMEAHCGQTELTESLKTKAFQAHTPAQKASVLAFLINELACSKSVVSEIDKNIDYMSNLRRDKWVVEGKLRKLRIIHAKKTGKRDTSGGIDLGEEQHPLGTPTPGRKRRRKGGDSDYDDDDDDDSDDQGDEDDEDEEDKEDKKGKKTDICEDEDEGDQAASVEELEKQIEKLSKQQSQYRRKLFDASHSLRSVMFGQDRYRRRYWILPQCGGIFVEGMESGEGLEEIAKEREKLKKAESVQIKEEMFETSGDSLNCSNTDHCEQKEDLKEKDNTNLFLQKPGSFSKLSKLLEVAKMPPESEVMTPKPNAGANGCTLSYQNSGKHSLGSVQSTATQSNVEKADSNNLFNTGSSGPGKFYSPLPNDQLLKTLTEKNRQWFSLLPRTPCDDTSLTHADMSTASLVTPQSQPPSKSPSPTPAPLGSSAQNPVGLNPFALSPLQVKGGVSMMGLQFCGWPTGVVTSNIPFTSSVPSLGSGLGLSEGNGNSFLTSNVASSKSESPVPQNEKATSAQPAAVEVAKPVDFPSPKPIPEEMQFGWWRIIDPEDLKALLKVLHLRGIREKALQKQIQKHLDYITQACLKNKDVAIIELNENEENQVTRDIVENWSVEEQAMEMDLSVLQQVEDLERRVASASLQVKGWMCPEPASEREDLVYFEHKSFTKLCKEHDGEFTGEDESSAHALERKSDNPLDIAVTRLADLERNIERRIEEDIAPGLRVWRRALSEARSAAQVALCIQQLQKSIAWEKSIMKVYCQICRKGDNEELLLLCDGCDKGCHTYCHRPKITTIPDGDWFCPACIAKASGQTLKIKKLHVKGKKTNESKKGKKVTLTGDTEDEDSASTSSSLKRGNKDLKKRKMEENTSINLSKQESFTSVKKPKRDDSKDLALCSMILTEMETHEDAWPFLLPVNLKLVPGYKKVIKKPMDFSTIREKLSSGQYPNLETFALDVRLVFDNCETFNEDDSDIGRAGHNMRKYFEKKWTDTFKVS
SMILES,Potency,"activity change, negative = inhibition"
COc1cccc(C(=O)Oc2c(CN3CCOCC3)cc(Cl)c3cccnc23)c1,active: 44.7 µM,–
Nc1nc(=S)c2ncn(C3CCCC3)c2[nH]1,"inconclusive: 79.4 µM [inhibitor, single point]",–
O=C(NCc1ccc2c(c1)OCO2)C1CC(=O)N(C2CCCCCCC2)C1 (stereo unspecified),"inconclusive: 89.1 µM [inhibitor, single point]",–
COc1ccc(Nc2nc3ccccc3nc2NS(=O)(=O)c2ccc(Cl)cc2)cc1OC,"inconclusive: 20 µM [inhibitor, full curve]",–
O=C(NNC(=O)c1ccccc1-n1cccc1)c1ccc(F)cc1,–,inactive: -30.6%
COc1ccccc1CCNC(=O)C(=O)NCC(c1ccco1)S(=O)(=O)c1ccccc1 (stereo unspecified),–,inactive: -5.39%
Cn1c(=O)n(C)c2cc(NC(=O)c3cc4ccccc4o3)ccc21,"inconclusive: 89.1 µM [inhibitor, single point]",–
Cc1ccc(-c2cc3c(n2-c2ccc(F)cc2)CC(C)(C)CC3=O)cc1,–,inactive: -25.3%
c1nc(NCCN2CCOCC2)c2sc3nc(N4CCOCC4)c4c(c3c2n1)CCC4,–,inactive: 0.868%
Cc1c(C(=O)NCC(c2ccco2)N(C)C)oc2c(Cl)cccc12 (stereo unspecified),active: 50.1 µM,–
CCOC(=O)c1n[nH]n2c1nc(=O)c1ccccc12,"inconclusive: 89.1 µM [inhibitor, single point]",–
C#Cc1ccc([C@@H]2C=C(C(=O)O)O[C@H](OCCCCO)C2)cc1,"inconclusive: 79.4 µM [inhibitor, single point]",–
CCOC(=O)c1c(C)oc2ncnc(N3CCN(c4ccccc4)CC3)c12,–,inactive: -13.6% [at 57.1 µM]
Cc1cc(-c2nnc(CCC(=O)NCc3cccc(C(F)(F)F)c3)o2)no1,–,inactive: -5.01%
COc1ccc(/C=N/NC(=O)c2cccc(S(=O)(=O)N3CCCC3)c2)cc1O,–,inactive: 0.504%
Cc1ccc(NC(=S)Nc2ccc3nc(-c4ccccn4)c(-c4ccccn4)nc3c2)cc1C,"inconclusive: 79.4 µM [inhibitor, single point]",–
CN(C)c1ccc(NC(N)=S)cc1,"inconclusive: 50.1 µM [inhibitor, partial curve]",–
COC(=O)c1ccc(NC(=S)N2CCN(Cc3cccc(C)c3)CC2)cc1,"inconclusive: 50.1 µM [inhibitor, partial curve]",–
COc1ccccc1C1C(C(=O)c2cc3ccccc3o2)=C(O)C(=O)N1CCN1CCOCC1 (stereo unspecified),"inconclusive: 89.1 µM [inhibitor, single point]",–
O=C1C(c2ccccc2)SC(=Nc2ccccc2)N1S(=O)(=O)c1ccccc1 (stereo unspecified),"inconclusive: 89.1 µM [inhibitor, single point]",–
CC(C)(C)c1ccc(C(=O)/C(C#N)=C/c2cccs2)cc1,active: 50.1 µM,–
CCCN(CCO)CCCc1ccccc1,"inconclusive: 89.1 µM [inhibitor, single point]",–
COc1ccc(OCCOc2ccc(/C=C3\C(=N)N4N=C(C)SC4=NC3=O)cc2)cc1,"inconclusive: 89.1 µM [inhibitor, single point]",–
O=C(/C=C/c1ccc(O)c(O)c1)O[C@H](Cc1ccc(O)c(O)c1)C(=O)O,active: 3.55 µM,–

SMILES,Potency,"activity change, negative = inhibition"
CCOc1ccc(C(=O)N2CCCC(c3nc(-c4ccc(C)o4)no3)C2)cc1 (stereo unspecified),"inconclusive: 79.4 µM [inhibitor, single point]",–
Cc1ccc(OCC(=O)Nn2cnc3ccccc32)cc1,"inconclusive: 89.1 µM [inhibitor, single point]",–
CCOC(=O)CC1=NN(c2ccccc2)C(=O)/C1=C\c1ccc(OC)cc1OC,active: 11.2 µM,–
CC(Nc1ccc(-c2nc(-c3ccco3)no2)cc1[N+](=O)[O-])c1ccccc1 (stereo unspecified),active: 79.4 µM,–
O=C(CCCc1ccccc1)NCc1cn2ccsc2n1,–,inactive: 4.89%
Cc1ccccc1NC(=O)CCNC(=O)Cn1ccc2ccccc2c1=O,–,inactive: 3.48%
O=C(/C=C/c1ccc(N2CCCCC2)c([N+](=O)[O-])c1)c1ccc(S(=O)(=O)N2CCCC2)cc1,"inconclusive: 7.94 µM [inhibitor, full curve]",–
CCOC(=O)c1c(C)[nH]c(C)c1S(=O)(=O)N1CCCC(C(=O)Nc2cccc(C)n2)C1 (stereo unspecified),"inconclusive: 70.8 µM [inhibitor, single point]",–
O=C1CC(N2CCN(c3ccc(F)cc3)CC2)C(=O)N1Cc1ccccc1 (stereo unspecified),"inconclusive: 89.1 µM [inhibitor, single point]",–
COc1cc(-c2noc(C)c2C#Cc2ccc(N)cc2)cc(OC)c1OC,"inconclusive: 44.7 µM [inhibitor, partial curve]",–
Cc1ccccc1Nc1c(-c2ccccc2)nc2ncccn12,–,inactive: -5.09%
NC(=O)c1ccsc1NC(=O)COC(=O)COc1ccccc1F,–,inactive: 0.167%
CN(CC(=O)Nc1cccc(F)c1)C(=O)c1ccc(N2CCCC2)c([N+](=O)[O-])c1,"inconclusive: 50.1 µM [inhibitor, partial curve]",–
CC(=O)c1sc(Nc2nc(C)cc(C)n2)nc1C,"inconclusive: 79.4 µM [inhibitor, single point]",–
CCOC(=O)Cc1csc(SCC(=O)N2CCN(c3ccc(OC)cc3)CC2)n1,"inconclusive: 89.1 µM [inhibitor, single point]",–
CCc1cccc(CC)c1NC(=S)NC(C)c1ccccc1 (stereo unspecified),"inconclusive: 89.1 µM [inhibitor, single point]",–
S=c1[nH]nc(-c2n[nH]c3c2CCC3)n1/N=C/C=C/c1ccco1,"inconclusive: 50.1 µM [inhibitor, partial curve]",–
O=C(O)c1ccccc1-c1nc2ccccc2c(=O)n1O,"inconclusive: 89.1 µM [inhibitor, single point]",–
COc1cc(CNc2ccc(O)cc2)cc(Br)c1OCc1ccccc1F,"inconclusive: 50.1 µM [inhibitor, partial curve]",–
Cc1cc(C(=O)OCC(=O)Nc2c(F)cccc2F)c(C)n1-c1ccccc1,"inconclusive: 50.1 µM [inhibitor, partial curve]",–
CCOc1ccc(NC(=O)Cn2cnc3c(oc4ccccc43)c2=O)cc1,"inconclusive: 22.4 µM [inhibitor, full curve, poor fit]",–
COc1ccccc1-c1sc2cc3c(cc2c1-c1ccc2c(c1)OCO2)OCO3,active: 79.4 µM,–
O=C(C[n+]1ccc(-c2nnc3n2CCCCC3)cc1)c1ccc(Cl)cc1,–,inactive: -0.699%
COc1cc(CNCCNC(=O)c2cccs2)cc(OC)c1OC,active: 89.1 µM,–

SMILES,Potency,"activity change, negative = inhibition"
COc1cccc(Nc2n[nH]c(=S)s2)c1,"inconclusive: 70.8 µM [inhibitor, single point]",–
CCOc1ccc(N(CC)S(=O)(=O)c2cccc3nsnc23)cc1,"inconclusive: 79.4 µM [inhibitor, single point]",–
C=C(C)COc1ccc(-c2nc(N)nc(C(F)(F)F)c2-c2ccc(OC)cc2)c(O)c1,"inconclusive: 35.5 µM [inhibitor, full curve]",–
C=CCn1c(C)cc(C(=O)CN2C(=O)c3ccccc3S2(=O)=O)c1C,"inconclusive: 89.1 µM [inhibitor, single point]",–
Cn1c(C(=O)N2CCOCC2)cnc1Sc1ncc(C(F)(F)F)cc1Cl,"inconclusive: 35.5 µM [inhibitor, single point]",–
Cc1ccc(C(=O)CSc2n[nH]c(-c3ccco3)n2)cc1C,"inconclusive: 50.1 µM [inhibitor, partial curve]",–
CCc1ccc(NC(=O)[C@H](NC(=O)[C@@H]2Cc3ccccc3CN2)c2ccccc2)cc1,"inconclusive: 79.4 µM [inhibitor, single point]",–
O=C(Nc1cccc(Cl)c1)c1ccc(NCCCN2CCOCC2)c([N+](=O)[O-])c1,active: 44.7 µM,–
Cc1ccc(S(=O)(=O)N/N=C/c2cc(Br)ccc2O)cc1,"inconclusive: 79.4 µM [inhibitor, partial curve]",–
COCCNCc1ccc(Cl)cc1Cl,–,inactive: -22.6%
Oc1ccccc1/C=N/Nc1nn[nH]n1,active: 44.7 µM,–
C/C(=N\NC(=O)c1ccccn1)C12CC3CC(CC(C3)C1)C2,active: 50.1 µM,–
COc1ccccc1C(c1nnnn1C(C)(C)C)N1CCN(Cc2ccccc2)CC1 (stereo unspecified),"inconclusive: 79.4 µM [inhibitor, single point]",–
Cc1ccc(CNC(=O)c2cnccn2)cc1,–,inactive: -1.89%
CC(=C/C(=O)O)/C=C/c1ccc([N+](=O)[O-])cc1,"inconclusive: 89.1 µM [inhibitor, single point]",–
O=C(COC(=O)c1cnc(Cl)c(Cl)c1)NCc1ccco1,active: 50.1 µM,–
COc1ccc(-c2cc(OC(=O)c3cccc(C)c3)c3c(C)oc(C)c3c(=O)c2)cc1,"inconclusive: 79.4 µM [inhibitor, single point]",–
Cn1c(=O)c2[nH]c(N=Nc3ccc(N)cc3N)nc2n(C)c1=O,"inconclusive: 70.8 µM [inhibitor, partial curve]",–
Brc1ccccc1-n1nnc(-c2cccnc2)n1,"inconclusive: 50.1 µM [inhibitor, partial curve]",–
O=C(Nc1ccc(-n2ccnc2P(=O)(O)c2ccccc2)cc1)c1ccccc1Cl,"inconclusive: 89.1 µM [inhibitor, single point]",–
Cc1ccc(C2CC(=O)NC(SCc3ccccc3)=C2C#N)o1 (stereo unspecified),active: 31.6 µM,–
COc1ccc(O)c(/C=N/Nc2nc(Nc3ccccc3)nc(-n3nc(C)cc3C)n2)c1,"inconclusive: 17.8 µM [inhibitor, full curve]",–
COC(=O)c1ccccc1NC(=O)COc1ccc(S(=O)(=O)NC(C)C)cc1,"inconclusive: 89.1 µM [inhibitor, single point]",–
